In PubChem BioAssay AID1347071 (National Center for Advancing Translational Sciences (NCATS), 2019):
Screen size: about 410,000 compounds; about 260 (0.063%) were called active. This list was built around the results that the source calls inconclusive (neither active nor inactive); the mix of calls is not that of the screen. Calls come from the whole dose curve; as a rule, active = well fitted activation curve with a large enough effect; inconclusive = small, poorly fitted or top-dose-only effect; inactive = no such curve, though single readings can be large or run the other way. Potencies of inconclusive entries are left out as doubtful fits.

Assay: qHTS for compounds that reverse cellular toxicity of Amyloid beta (A-beta) peptide in yeast: Primary Screen; note: nearly all actives have a fitted effect of over 55% in size
Conditions: yeast expressing A-beta42, growth rescue, OD600, 48 h; growth rescue: at 46.1 µM (top of the series), 0% DMSO, 100% iron-clioquinol control
In short: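 Yeast growth medium received pinned compounds, then yeast cells expressing toxic A-beta were added; plates incubated at 30 C for 48 hr. Growth read as absorbance at 600 nm, normalized to DMSO and equimolar FeCl3 plus clioquinol controls.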
Potency is the fitted concentration of half-maximal effect; tags give direction and shape of the fitted curve.

| Compound | Potency | growth rescue |
| --- | --- | --- |
| Cc1ccccc1OCC(=O)NNC(=S)NC(=O)c1ccccc1[N+](=O)[O-] | inactive |  |
| CCC(=O)N1N=C(c2c(O)n(C)c(=O)n(C)c2=O)CC1c1ccccc1 (stereo unspecified) | inconclusive [activator, single point] |  |
| COc1ccccc1-c1cc2nc(NCc3cccc(Cl)c3)ccn2n1 | inconclusive [activator, single point] |  |
| COc1ccc(-c2sc3ccc(N4CCOCC4)cc3c2C#CC2(O)CCCCC2)cc1 | inactive |  |
| CCc1ccc2oc(C(=O)NCc3ccncc3)c(C)c2c1 |  | inconclusive: 26.9% [activator] |
| S=C(N/N=C/c1ccccc1)N1CCOCC1 | inconclusive [activator, partial curve, poor fit] |  |
| CC(C)C(=O)Nc1nnc(SCc2cccc(F)c2)s1 | inconclusive [activator, partial curve, poor fit] |  |
| Cc1ccc(N=Nc2ccc(O)c3ncccc23)cc1C | inactive |  |
| C/C(=C\c1ccccc1)C(=O)N1CCN(c2cccc(C(F)(F)F)c2)CC1 | inconclusive [activator, single point] |  |
| Cc1nc(NC(=O)C2CCCCC2)sc1C | inconclusive [activator, partial curve] |  |
| COC(=O)COn1c(-n2nc(C)cc2C)nc2ccccc2c1=O | inconclusive [activator, partial curve, poor fit] |  |
| C=CC[C@H](CC(=O)NCCO)C(=O)N[C@@H](COC(=O)[C@@H](CC=C)Cc1ccc(F)cc1)Cc1ccccc1 | inactive |  |
| O=C(Nc1ccc(F)cc1)c1ccc2nsnc2c1 | inconclusive [activator, single point] |  |
| C=CC[C@H](CC(=O)N[C@H](CO)Cc1ccccc1)C(=O)N[C@H](COC(=O)[C@@H](CC=C)CC(=O)OC(C)(C)C)Cc1c[nH]c2ccccc12 | inactive |  |
| OC(c1ccccc1)(c1nc(-c2ccc3c(c2)OCO3)cs1)C(F)(F)F (stereo unspecified) | inconclusive [activator, single point] |  |
| O=C(CC(c1ccccc1)c1ccccc1)OCn1nnc2ccccc2c1=O | inactive |  |
| CC(C)(C)NC(=S)Nc1ccc(Nc2ccccc2)cc1 | inconclusive [activator, partial curve, poor fit] |  |
| Cc1cc(N2CCCC2)nc2ccc(NC(=S)NCCCN3CCC(C)CC3)cc12 | inactive |  |
| CCCn1nnc(NC(=S)NC(=O)Cc2ccccc2)n1 | inconclusive [activator, partial curve, poor fit] |  |
| Cc1cc2cc(CNC(=S)NC3CCCCC3)ccc2[nH]1 | inconclusive [activator, partial curve, poor fit] |  |
| O=C(NCc1ccncc1)c1ccc(NS(=O)(=O)c2ccc(F)cc2)cc1 | inconclusive [activator, partial curve, poor fit] |  |
| CC(C)CN(C(=O)COc1ccc([N+](=O)[O-])cc1)c1c(N)n(CC(C)C)c(=O)[nH]c1=O | inconclusive [activator, single point] |  |

| Compound | Potency | growth rescue |
| --- | --- | --- |
| Cc1ccc(C)c(NC(=S)NC(=O)c2cncc(Br)c2)c1 | inconclusive [activator, partial curve, poor fit] |  |
| CCOc1ccccc1CN1CCNC(=O)C1CC(=O)NCc1cc(C)n(C)n1 (stereo unspecified) | inconclusive [activator, single point] |  |
| CCOc1cc(S(=O)(=O)NCc2cccs2)ccc1Cl | inconclusive [activator, partial curve, poor fit] |  |
| CC1=CCC(C(=O)N/N=C/c2cccs2)C(c2ccc(F)cc2)C1 (stereo unspecified) | inconclusive [activator, single point] |  |
| CSc1ccccc1NC(=S)NC1CCCC1 | inconclusive [activator, partial curve, poor fit] |  |
| O=S(=O)(NCCc1csc(-c2cccnc2)n1)c1ccc(Cl)s1 | active: 11.2 µM |  |
| COc1ccc(S(=O)(=O)Nc2cccc(F)c2)cc1C | inconclusive [activator, partial curve, poor fit] |  |
| C=CCOc1ccc(/C=C2\SC(=S)N(NS(=O)(=O)c3ccc(C)cc3)C2=O)cc1 | inactive |  |
| COc1ccc2c(c1)c(=O)oc1cc(OCC(=O)NC3CCCCC3)ccc12 | inconclusive [activator, partial curve, poor fit] |  |
| CCN(CC(=O)Nc1cc(Cl)ccc1C)C(=O)CSCc1ccccc1 | inconclusive [activator, partial curve, poor fit] |  |
| Cc1ccccc1NC(=O)Cc1nc(COC(=O)CNS(=O)(=O)c2cccc(Br)c2)cs1 | inconclusive [activator, partial curve, poor fit] |  |
| O=[N+]([O-])c1ccc(Nc2nc(N/N=C\c3ccc4c(c3)OCO4)nc(N3CCCCC3)n2)cc1 | inconclusive [activator, single point] |  |
| COc1ccc(N2C(=O)CC(SCc3ccc(Cl)cc3)C2=O)cc1 (stereo unspecified) | inactive |  |
| C=C(C)CNC(=S)N/N=C\c1ccc2c(c1)OCO2 | inconclusive [activator, partial curve, poor fit] |  |
| Cc1c(Br)c(C(F)(F)F)nn1CC(=O)NCc1ccco1 | inconclusive [activator, partial curve] |  |
| Cc1cc(N2CCCCCC2)n2nc(C)c(-c3ccccc3)c2n1 | inconclusive [activator, partial curve, poor fit] |  |
| Cc1ccc(-n2ncc(C(=O)NCc3ccco3)c2C2CCN(C(=O)OC(C)(C)C)CC2)c(C)c1 | inconclusive [activator, full curve] |  |
| CCN(CC)S(=O)(=O)c1ccc(C(=O)Nc2cccc(C)c2)cc1 | inconclusive [activator, partial curve] |  |
| O=C(COC(=O)CCS(=O)(=O)c1ccc(F)cc1)NC1CCCCC1 | inactive |  |
| C[C@@H]1C[C@@H]2O[C@H]2/C=C\C=C\C(=O)Cc2c(Cl)c(O)cc(O)c2C(=O)O1 | inconclusive [activator, partial curve, poor fit] |  |
| Cc1ccc2nc(NC(=O)C3CCN(C(=O)c4ccc(F)cc4)CC3)sc2c1 | inconclusive [activator, full curve, poor fit] |  |
| CC1(C)NC(=O)N(CN2C(=O)NC(C)(C)C2=O)C1=O | inconclusive [activator, full curve, poor fit] |  |

| Compound | Potency | growth rescue |
| --- | --- | --- |
| COc1cc(NC(=O)Cn2cnc(S(=O)(=O)N3CCCC3)c2)cc(OC)c1OC | inconclusive [activator, single point] |  |
| CCOC(=O)C1CCN(C(c2cccc(F)c2)c2c(O)cc(C)n(CCOC)c2=O)CC1 (stereo unspecified) | inactive |  |
| CCOc1ccccc1N1CCN(Cc2cc3c(cc2[N+](=O)[O-])OCO3)CC1 | inconclusive [activator, partial curve, poor fit] |  |
| Cc1ccc(NC(=S)N2CCSC2c2cccs2)cc1 (stereo unspecified) | inconclusive [activator, partial curve, poor fit] |  |
| c1ccc2c(c1)OCCOCCOCCOCCOCCOc1ccccc1OCCOCCOCCO2 | inactive |  |
| CC1(c2ccc(Cl)c(Cl)c2)NC(=S)N2C1NC(=S)N2c1ccccc1 (stereo unspecified) | inconclusive [activator, partial curve, poor fit] |  |
| CC(C)[C@H](N)C(=O)N[C@H]1CCC2C3CC=C4C[C@@H](O)CC[C@]4(C)C3CC[C@@]21C (stereo partly specified) | inactive |  |
| Cc1[nH]c2c(Cl)cccc2c1CCNC(=O)C1CCCCC1C(=O)OCC(F)(F)F (stereo unspecified) | inconclusive [activator, full curve] |  |
| S=C(Nc1ccc(Br)cc1)Nc1ccc2c(c1)OCCO2 | inconclusive [activator, single point] |  |
| Cc1ccc(C)c(NC(=S)NCCc2ccc(F)cc2)c1 | inconclusive [activator, full curve] |  |
| CC(C)(C)NC(=O)C[n+]1ccc(C(N)=O)cc1 | inactive |  |
| CN(CC1CCOCC1)C(=O)CC1C(=O)NCCN1Cc1cccc(F)c1 (stereo unspecified) | inconclusive [activator, single point] |  |
| O=C(CN1CCCC1)Nc1c(Cl)cccc1Cl | inconclusive [activator, full curve] |  |
| CCCSc1nnc(N2C(=O)CC(c3ccsc3)C3=C2CCCC3=O)s1 (stereo unspecified) | inconclusive [activator, partial curve, poor fit] |  |
| CCCn1c(/C=N/Nc2nc3ccccc3[nH]2)nc2ccccc21 | inconclusive [activator, single point] |  |
| CC(C)N=C1SC(CC(=O)Nc2ccccc2)C(=O)N1C(C)C (stereo unspecified) | inconclusive [activator, partial curve, poor fit] |  |
| S=C1NC(c2ccccc2)=CC(c2ccccc2)N1 (stereo unspecified) | active: 12.6 µM |  |
| COc1ccc(N(Cc2cc3cc(C)ccc3[nH]c2=O)C(C)=O)cc1 | inactive |  |
| Cc1sc2ncnc(SCC(=O)NCC3CCCO3)c2c1C (stereo unspecified) | inconclusive [activator, single point] |  |
| Cc1ccc(Cl)cc1N1CCN(S(=O)(=O)c2ccc3c(c2)CCCN3C(=O)C2CCC2)CC1 | inactive |  |
| CCCCCn1c(-c2ccc(OC)c(OC)c2)nc2ccccc21 | inactive |  |
| CC(C)Oc1ccc(F)cc1-c1cc(C(=O)Nc2ccccc2)[nH]n1 | inactive |  |
